The values below come from article PMC12136788.

The other results are listed elsewhere or left out.

T1: UNK ZnF1-3 (human, UniProt Q9C0B0 31-174)
T1 sequence: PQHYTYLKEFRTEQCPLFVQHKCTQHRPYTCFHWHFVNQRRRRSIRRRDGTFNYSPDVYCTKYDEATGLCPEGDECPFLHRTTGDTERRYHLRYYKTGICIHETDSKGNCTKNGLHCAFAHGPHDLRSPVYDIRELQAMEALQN

B1: chr11:4749296:4749297:-_ENSMUSG00000009073_ENSMUST00000109910|mus_mus|FALSE|FALSE (ssRNA)
RNA: GGGAGUUCUACAGUCCGACGAUCGCAGCCCCGAGCUUGGAGCUUCGGGCUGGGGACGCCAGGGACGCCUUUGGACAGAAAUCCUAGACGGCUGCGGCGCCGACGCCGGGCCUCUCAGCGACCCCCGAGGGUCGCGGGGCCGCGCAACAGAGGAUUGAGCAUCA
B2: chr8:74704862:74704863:-_ENSG00000104343_ENST00000602593|hu_hu|FALSE|FALSE (ssRNA)
RNA: GGGAGUUCUACAGUCCGACGAUCACUGGCUUUCAGUUUUAAGCCCAAAUUGAUUCAUAUAUUCACUGCAGGAUAUUUCAAAAAGAGUGCAACAAUAAGGCAUUAGUAAAAAUAACAUUGUAGUAGAAACAGAUUUUGCAUAUGCAACAGAGGAUUGAGCAUCA
B3: 71361155_71361795_1258_CDS_ENSG00000124383_ENST00000244230|human|control|control (ssRNA)
RNA: GGGAGUUCUACAGUCCGACGAUCUUUAUUGUCUUCAUUUUCUUGAAGGUCAUCAUCUUCAUCCGUUUCCGAAAUACUUAGUUCUUCUGCUUCUUCUUCAGCAAUUUCAUCAUCUUCUUUGUUUGAAUCCAGCUCAUCAUCAUGCAACAGAGGAUUGAGCAUCA
B4: chr8:26875701:26875702:-_ENSMUSG00000037316_ENSMUST00000038498|mus_hu|FALSE|FALSE (ssRNA)
RNA: GGGAGUUCUACAGUCCGACGAUCCAGGACGUAGGCAUGAUAGCUAAAUGCAAGGCUGGGUCUUGGAACAGUAAAAGGACAUUAGUGAAAAGACUAAAAUCUCUACUUUUUAAACUUUCUACUUUAGUUAGUAUUAUAUCAAGGCAACAGAGGAUUGAGCAUCA
B5: 35108640_35115693_214_5pUTR_ENSG00000005238_ENST00000378566|human|control|control (ssRNA)
RNA: GGGAGUUCUACAGUCCGACGAUCUGCCUCGUGCCCCUAGCUUGCAGUCUGAUCCAUGCCUGCUGCACUGGCAAGGUGACUGCCACCAUUCCGUGCAGCUCCUGAGCUCAGCAGGACCCUUGUUGCCCACACAUUGAGUCCCCACAACAGAGGAUUGAGCAUCA
B6: chr1:89340274:89340275:+_ENSMUSG00000048000_ENSMUST00000174671|mus_hu|motif|central (ssRNA)
RNA: GGGAGUUCUACAGUCCGACGAUCUUUGGCACGGCGCUCAAGGAACUGCUUGGCAAACUCCUUGGCCUCAGAAGUAUCUCCGGAAUAGGCCCUGAUAUAAUCAUGGACCUCAUAAGGAGAUUCUACUUCUUUCAGGAAAGAAACCAACAGAGGAUUGAGCAUCA
B7: 103801465_103801585_240_5pUTR_ENSG00000100664_ENST00000558506|human|control|control (ssRNA)
RNA: GGGAGUUCUACAGUCCGACGAUCUUUAAGGGCAACCUAGGGAACUGUUCUCUACAACUAAUCGUUGCUUCGGCAACCAUGGCUUACUUCAAAGCAGCACUUCCUUAAACGCAGCGCUCGCCCACAAUUUGCCAUUAAGCAAGACAACAGAGGAUUGAGCAUCA
B8: chr13:31722556:31722557:-_ENSG00000120694_ENST00000320027|perfect_dup|FALSE|FALSE (ssRNA)
RNA: GGGAGUUCUACAGUCCGACGAUCUUCAUGAACACCUUCAGUAUCUUCUGAAUCAUGGUUCCAGAUCAGAGAUAUUGGAAAAGGAACUGCAUCUGUGACGGAAAAUUCUCUAACUUUAAAUGCCGGGGAAAGUAUUGCACACUGCAACAGAGGAUUGAGCAUCA
B9: 69235085_69235205_3312_3pUTR_ENSG00000135679_ENST00000462284|human|control|control (ssRNA)
RNA: GGGAGUUCUACAGUCCGACGAUCGGCUGGAGAAUAAGUACAUUUUUACAGCCGGGUGUGGUGGCUAACGCCUGUAAUCCUACUUAGCACUUUGCGAGGCCAAGACAGGAGGAUCUCUUGAGCCCAGGAGUUCGAGACCAGCCUCAACAGAGGAUUGAGCAUCA
B10: 130011425_130011891_1932_CDS_ENSG00000084234_ENST00000528499|human|control|control (ssRNA)
RNA: GGGAGUUCUACAGUCCGACGAUCGGCCACUGCGAUGACCAGCAGGCCAAUGAGAGCACUGCUACUCAGACUGAAGUCCUCCCGCAGUGGGCCCACGGAUUCCCGCUCUUCCUCGAGGCCUCCAACUCUCUCGGCAUUGAAAAUCAACAGAGGAUUGAGCAUCA
B11: chr1:63226128:63226129:+_ENSMUSG00000025967_ENSMUST00000135877|mus_hu|motif|central (ssRNA)
RNA: GGGAGUUCUACAGUCCGACGAUCCUCAAAAGCAGUGAUCUGCUCCUCCAGCAUAUCUGUUCCAACUUUAUCAUCUUCAACGGCACACUGUAUUUGAAGUUUCUUAAUUCCGUAUCCCACUGGAACUAGUUUAGAUGAGCCCCACAACAGAGGAUUGAGCAUCA
B12: chr7:135612270:135612271:-_ENSG00000105887_ENST00000393085|hu_mus|hu_hu_hu_mus_False|1_8 (ssRNA)
RNA: GGGAGUUCUACAGUCCGACGAUCGUUUUUUUCUGAGAUGUUAAAUAGUACUUCAGUGGAAAACAAAACUUAACCUUUUAUUAAUGCGUGUUGUACCAAAAGCAGACAUUUUAGCUUCAUUUAUUCACUCAAAAUAUGAACAUUCAACAGAGGAUUGAGCAUCA
B13: 57314940_57316855_929_3pUTR_ENSG00000128050_ENST00000264221|human|control|control (ssRNA)
RNA: GGGAGUUCUACAGUCCGACGAUCGCAACCCACUCAAAGUUUUUCUUUACCAUUUGGAGCCCUUCAGGAGUUACUUCUUUGAGGUCCCGAUAAGACUGUUUGUCUUUCUGUUGGCUUCGAUCUCCUGAUGGCCAGAGUCUCCAGCAACAGAGGAUUGAGCAUCA
B14: chr12:86613709:86613710:-_ENSMUSG00000008822_ENSMUST00000008966|mus_hu|FALSE|FALSE (ssRNA)
RNA: GGGAGUUCUACAGUCCGACGAUCUUGCAAUUGUCCUUGCACUGUGCCCCGGUCAGUGUUCUGGACCCAGCCUACCAAUCCCAGCUUUUUACCCUCAGCCUGAGUAUGCUUACGGAAAAACACCCCUUGCACCUUCCCAAAAAUCAACAGAGGAUUGAGCAUCA
B15: chr8:25296883:25296884:-_ENSG00000104756_ENST00000221200|hu_hu|FALSE|FALSE (ssRNA)
RNA: GGGAGUUCUACAGUCCGACGAUCGUAGUUCAAAAUGGGUUCGAAGUACUCAGGACUUCGGUCAAUUAAGAAAGCUCCUCUAUGAUCUUGCUUAUUUCCCCAGACACCUUUGUCCUUAAACAUGUGGGCCAGCAUACUGUCAGGCAACAGAGGAUUGAGCAUCA
B16: 93826433_93826553_1586_3pUTR_ENSG00000117505_ENST00000370272|human|control|control (ssRNA)
RNA: GGGAGUUCUACAGUCCGACGAUCGAAAUGCAAAUGCAGAUUUAGAGCUUUGUAGAAAUUUCACUGUAUUUUUAUAAACUUGAAGUUAUCUGUAACACUGUUUAUUGAUCAAACGAAGGACUCGCUGCUAUCUAAAAUUUCAUACAACAGAGGAUUGAGCAUCA
B17: chr11:115359251:115359252:-_ENSMUSG00000020737_ENSMUST00000021083|mus_mus|FALSE|FALSE (ssRNA)
RNA: GGGAGUUCUACAGUCCGACGAUCACACAUCAGGAACCAGAUCAUCUGUUCUUAGAAACAGUCUACUACUCCAGUCUACUACUAGAAAACACUCAUGCCAUGGCGCACAGACCCAGGAGUCAGACAGACAGAAGGAAAGGAAGACAACAGAGGAUUGAGCAUCA
B18: 72196771_72196891_5085_CDS_ENSG00000197555_ENST00000555818|human|control|control (ssRNA)
RNA: GGGAGUUCUACAGUCCGACGAUCGGUGAAAAAGUGCUCCCUCUGGCUAUUGUAAAUGCUCUCGUCCGACAGUGUUCUGUGCAAGGCCCGCCGUGAGGUGGGGGUGCUGGGGAAAGGAGACUGAGGAGAGGAGAGUGCGUGGAACAACAGAGGAUUGAGCAUCA
B19: chr13:14146135:14146136:-_ENSMUSG00000021302_ENSMUST00000170957|mus_hu|motif|central (ssRNA)
RNA: GGGAGUUCUACAGUCCGACGAUCAGUGUAUUCAAAAGAACCUACAUCCUCAAGAUAAUGUACACAGUAUUUUUUUAUAUCGGUGUUUUCUGUUCUCUGGCGCAAGAUAUUCUGCACCUGGGUGCUUUCAGGCCUUGACCAAAUCAACAGAGGAUUGAGCAUCA
B20: chr18:56902939:56902940:+_ENSMUSG00000024590_ENSMUST00000025486|mus_hu|FALSE|FALSE (ssRNA)
RNA: GGGAGUUCUACAGUCCGACGAUCUGUGACACCAGCGUUUGCAGCCCAAAUUGUAACAGUCUGGCCUGCCUUCAGCACAUAUCUUGAGGUAUAUUUAUAACUGACUGAUGUGUCUCCAAUUUUUCUGAUCAUCUCCCAGCCUCCCAACAGAGGAUUGAGCAUCA
B21: 120444943_120445063_861_3pUTR_ENSMUSG00000027285_ENSMUST00000124187|mouse|control|control (ssRNA)
RNA: GGGAGUUCUACAGUCCGACGAUCGUAGGAGCUUUUUCCCACUGAGACAUCUUUCUGGCUCCACUAUUCCAUUAAUAUUGCUAGCAAGAAAAACUAUCAAUAUCCCUGUCACAACAAUCUAGAAACGGACUUCUUUGACUACAUCAACAGAGGAUUGAGCAUCA
B22: chr5:37680062:37680063:+_ENSMUSG00000029121_ENSMUST00000031004|mus_hu|mus_mus_mus_hu_False|28_98 (ssRNA)
RNA: GGGAGUUCUACAGUCCGACGAUCUUUGGGUGUAGCUGGCACCUCGUACACAGGACCGUCAUACAUGCCCCUGGAAACCCCUUGCAAUCCAAAAACCUUAUUCCUGAUCCUGACACGCUGGUACAGGUGCUCCGGGAACGCCUUCAACAGAGGAUUGAGCAUCA

The experiment addresses T1, UNK ZnF1-3. The experiment can be described thus: nsRBNS (natural sequence RNA bind-n-seq); RBNS binding buffer (assumed for nsRBNS): 25 mM Tris pH 7.5, 150 mM KCl, 3 mM MgCl2, 0.01% Triton X-100, 500 ug/ml BSA, 20 U/ml SUPERase-In, 4 C; UNK is unkempt and MSI1 is Musashi-1; names of the RNAs are library labels; protein concentration not given here; high values mean tight binding.
As to B1, the binding signal is 0.596 enrichment R.

On to B2, for which the binding signal stood at 1.78 enrichment R.

With B3, the binding signal was 0.293 enrichment R.

As for B4, the binding signal amounted to 1.22 enrichment R.

On to B5, for which the binding signal amounted to 0.77 enrichment R.

For the molecule B6, the binding signal turned out to be 0.621 enrichment R.

As for B7, the binding signal was found to be 0.72 enrichment R.

In turn, B8 displayed a binding signal of 1.13 enrichment R.

With B9, the binding signal came out at 1.12 enrichment R.

With B10, the binding signal was 0.811 enrichment R.

The molecule B11 returned a binding signal of 0.91 enrichment R.

On to B12, for which the binding signal amounted to 0.759 enrichment R.

The molecule B13 showed a binding signal of 0.473 enrichment R.

Molecule B14 showed a binding signal of 1.24 enrichment R.

In the case of B15, the binding signal is 1.08 enrichment R.

Molecule B16 gave a binding signal of 0.898 enrichment R.

B17 yielded a binding signal of 1.63 enrichment R.

Consider B18, for which the binding signal is 1.47 enrichment R.

B19 displayed a binding signal of 0.574 enrichment R.

Molecule B20 gave a binding signal of 0.929 enrichment R.

On to B21, for which the binding signal stood at 1.05 enrichment R.

Molecule B22 displayed a binding signal of 0.868 enrichment R.
